# Measured values published in the supplement of paper PMC11417369.
# ± gives the standard deviation of the averaged measurements. This is one part of the list.
# Test system: PfAP2-I AP2 domain 3 (GST-tagged)
# Assay: gcPBM binding intensity (ln(normalized median fluorescence intensity)); higher = stronger DNA binding
# Method in brief: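 GST-tagged P. falciparum DNA-binding domains, expressed in E. coli (about 25 μg on average), were applied for 1 h to an Agilent 4 × 180k array of primer-extended double-stranded 36-bp intergenic genomic probes plus negative controls. The binding buffer was 1× PBS with 1% milk, 0.2 mg/ml BSA, 0.5% salmon testes DNA and 0.03% Triton X-100. Bound protein was detected with Alexa488 anti-GST antibody and scanned at 488 nm. Binding intensity is the highest Masliner-normalised natural-log median intensity across replicate spots of either probe orientation.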
row,Sequence,gcPBM binding intensity (ln)
1,ATTCTTATTTAAAGGTGTACTCTTAAACAGATTTTA [XGTACX_site3526],7.79 ± 0.43
2,CACCCCCACAGACACACACACACACCCACATATATA [CACACA_site365],8.85 ± 0.014
3,TTCATAAAATGATATTGTACAAATAAATAATAGTAT [XGTACX_site819],8.1 ± 0.52
4,AGATTTAAATTTATATGTACATAATATGGGCGTATA [XGTACX_site6631],8.07 ± 0.29
5,GGTCTTCTTAATATACTGCACTGTATACGTATATAA,11 ± 0.61
6,TGTAGATTTTGTAACACACACATATATATACATATA [CACACA_site2405],7.71 ± 0.41
7,CTTATTATTATATGGGTGCTCATATTTTTCTTTTTT [GTGCAC_site9723],8.59 ± 0.36
8,ACAAACATTAGGGAAGCATGCAATATTTTTTTACAT [TGCATGCA_site372],7.93 ± 0.57
9,ATTATATACATATATATACACACGTAGTTTCTATTT [CACACA_site8697],7.66 ± 0.51
10,ATATATATATATAAATGTACATTTTTCAATAGTTTT [XGTACX_site7449],9.04 ± 0.33
11,TATAAATAAATAGATACACACATATATATAAATACA [CACACA_site155],7.55 ± 0.5
12,TACTTTTTATTTTCTTGTACTTAATTGTCCAGATTT [XGTACX_site4334],7.9 ± 0.73
13,TAGATATATAGACACACACACATTAATACCTATATT [CACACA_site7605],8.1 ± 0.22
14,TGTCATTTAATTTTTTGTACGAAAAAAACATATAAA [XGTACX_site4952],8.07 ± 0.16
15,AGTTGTTTTAATAATGCATGTTATTTTATTTTAATA [TGCATGCA_site168],7.99 ± 0.81
16,GTATATATATATGTATATATTTTATTTTATTTTTAT [CACACA_negctrl_site1439],7.43 ± 0.35
17,TATATATATAGACACACACACACATATATATATATA [CACACA_site9366],9.16 ± 0.3
18,GTACATAGATTGTACATACACACCTATATAAATATC [CACACA_site3225],7.84 ± 0.42
19,TTTTTTTTGTTCTATACAATTATAAAAATAAAATAT [XGTACX_negctrl_site53],7.58 ± 0.43
20,AATATATGGTTCCATGATATTAAATTCAATTTAATG [CACACA_negctrl_site605],7.37 ± 0.62
21,TAATATCATTTATGTAGTACTATAACAAGAACTATA [XGTACX_site3618],7.65 ± 0.17
22,AAAAAAAAAAAGCACACACACATATGAGTATATATA [CACACA_site4683],8.03 ± 0.15
23,GCTTATATAAAAAGTTGTACAACCGAATCTTTTACA [XGTACX_site2119],8.09 ± 0.32

row,Sequence,gcPBM binding intensity (ln)
1,TACACAAGCAGACACACACACATATATATATATATA [CACACA_site1270],9.36 ± 0.35
2,AATGTAAAAGTAAACACACACATATATAAATACATA [CACACA_site5386],7.63 ± 0.54
3,AAGGGGTAAAGAAAAACACACAAAAAATAAAAATAT [CACACA_site361],8.24 ± 0.19
4,AAGAGAAAAATATATACACACACATAAATATATACA [CACACA_site8573],7.62 ± 0.49
5,TGCATACTTTTGTAAGTGCATAAAATCGTACCATGC,10.2 ± 0.36
6,GAAATAATTCGATGTGCATGTAACGTTTCCCCAAAG [TGCATGCA_site122],8.58 ± 0.54
7,GATGAAAATAGAAATACACACTAAAAAATAAAATTA [CACACA_site4764],7.56 ± 0.69
8,AATTAAAAAAAATACACACACACATACACATATATA [CACACA_site3298],7.88 ± 0.21
9,CGTATTTATATAATTACACACCATATTATAATTATT [CACACA_site3760],8.04 ± 0.41
10,CCAAAAAAAAAAAAAAGTACATAAAAACAAGAGAAT [XGTACX_site3037],8.23 ± 0.58
11,GAAAGGATATATATATATATATATATAATACATTTC [GTGCAC_negctrl_site677],8.16 ± 0.49
12,TATATATACATACATACACACATATATATATATATT [CACACA_site4110],7.96 ± 0.35
13,ACATATAATATATAATGTACAAAATTGTTAACAATA [XGTACX_site3798],7.79 ± 0.35
14,AAAAAAAAAAAAAAAGTGCACAGTCGTTTTAAAAAA [GTGCAC_site9848],10.34 ± 0.092
15,TCTATATCTTTCAACACACAAATTTTTTTTTCCATC [CACACA_site4238],7.74 ± 0.64
16,AAGATAATATTTTCTTGTACGCATGCACATACAAAT [XGTACX_site7181],8.14 ± 0.52
17,CTTTTCTCCCTCCATAGTACAATTATAAAAATATAT [XGTACX_site3090],8.15 ± 0.2
18,ATGCAAAGTTTATAAAGTACATAAGTCAAAATAAAA [XGTACX_site1441],7.97 ± 0.68
19,ATTAACTATCATAACACACACAGTAGACATATTTTT [CACACA_site1822],7.83 ± 0.56
20,AAATCATTTAAGAACACACAAATATTTCCATTAAAT [CACACA_site6808],7.74 ± 0.57
21,CTCAATGTTTGCGATACATGCAAAAATTTTTAGAAT [TGCATGCA_site165],7.71 ± 0.5
22,TACATTTCATTGTAATCATAAAAAATAAAGAAAAAA [XGTACX_negctrl_site542],7.58 ± 0.61
23,TAGAAGCATGGACACACACACATACATACCCATACA [CACACA_site4916],8.05 ± 0.57

row,Sequence,gcPBM binding intensity (ln)
1,TTATTTTTCCGGAATAGTACATAGACGCAGATATAA [XGTACX_site6356],8.16 ± 0.33
2,CTTAGGTTAAAAGTGTGTACATAAAAACATATATAA [XGTACX_site2213],8.38 ± 0.26
3,TACTATTATAAATATGTGCACTTCAATAATATACTA,10.4 ± 0.11
4,TAAATAAATTATTTTCGTACTTATTTATTTTAATTA [XGTACX_site283],7.57 ± 0.3
5,ATAAGAAAAAGACACACACACAAAAAAAAAAAAAAA [CACACA_site2828],8.04 ± 0.47
6,AAAAAAAAAAAACACACACACAAATACAAATGGTAA [CACACA_site1720],7.92 ± 0.4
7,TTCAATAGGTATAATTGTACTTAATAATATATTGTT [XGTACX_site8363],7.53 ± 0.42
8,AAGTTATTGATATATACACACAAATATAAATAATAT [CACACA_site6695],7.63 ± 0.55
9,AATACATATCAAAGCTGTACAAAGTAAATTTTACTT [XGTACX_site3525],7.72 ± 0.69
10,TAATGGTTATCACTAACATGCAGTAATATTATATAG [TGCATGCA_site176],7.93 ± 0.75
11,ATATATATATGTATATGTACATATATATGGTAACTC [XGTACX_site681],8.93 ± 0.55
12,AAAAGAAAAAAAAAAAAAAAAAAAATTAAAATATAA [CACACA_negctrl_site17],7.07 ± 0.49
13,TTTTTTCTTTTTTTTTGTACATATAATATTTATGTT [XGTACX_site302],7.8 ± 0.5
14,TAAAATATTATTTATTTACACACCAATCTTCTTTTC [CACACA_site9320],7.65 ± 0.51
15,ATATAATATTTATATGCACACTTTTCTATATATAAG [CACACA_site6100],9.77 ± 0.15
16,TCGTATTTAAAATGTAGTACATAATTTGAAAAATAA [XGTACX_site5832],7.83 ± 0.028
17,TACAGATACAGATACACACACACACCGAAATAAATA [CACACA_site4865],7.84 ± 0.37
18,TAAATTCCTACATACGCATGTACATTAAAATTTTAA [TGCATGCA_site215],7.91 ± 0.59
19,AAAATAAAAAGAAAAAGAAAAAAGGGGGGGTAGGGG [CACACA_negctrl_site1048],9.135 ± 0.049
20,CTTTAAGTTATATGAAGTACAATTTAAAAAAATGAA [XGTACX_site358],7.88 ± 0.28
21,ATACATTCAATGAAATGTACGTTTATTTACAGAAGA [XGTACX_site2999],7.68 ± 0.45
22,AAATAAAAAACAGTGGCACACATTATGTATCCACCT [CACACA_site3756],8.03 ± 0.69
23,AAAAAAAAAATATACACACACATATAAATATAAATA [CACACA_site7574],7.54 ± 0.38

row,Sequence,gcPBM binding intensity (ln)
1,TTAAAGTAGAGAAAATGTACATTTTATTAACACAAT [XGTACX_site6369],7.94 ± 0.65
2,TTATGCCTTTAATATACACACTAATATTTTTTTGGC [CACACA_site5171],7.76 ± 0.46
3,TATATGAAGTACACAATACACACTAATTATATATAA [CACACA_site2608],8.155 ± 0.035
4,AACTATAAAAATTTTACACACTGTTTTTAAATAATG [CACACA_site5928],7.93 ± 0.62
5,AATTTTTTTTTTAGACGTACAAGAAAAAACAAAAAA [XGTACX_site4990],8.15 ± 0.55
6,GTAAAATGATATAAATGTACATAATATATATATGTC [XGTACX_site4049],7.74 ± 0.6
7,TGTGTATTTATAAATACACACCAAATGTTAATATAT [CACACA_site6904],8.03 ± 0.47
8,TGTCATATTATAAATTGTACAAATAGTATAATTATT [XGTACX_site581],7.78 ± 0.54
9,ATAAAAATATTATAAGCACACATATATATATATATA [CACACA_site8781],9.39 ± 0.57
10,AGTATACATATATATACACACATATATATATATATA [CACACA_site300],9.38 ± 0.59
11,ATTTTATCTTTAAACTGTACGTATTAATATGTAGAA [XGTACX_site3077],8.02 ± 0.26
12,AAATAATTTGTTGACACACACACACCCATACAGATA [CACACA_site5291],8.12 ± 0.33
13,TTTTGACCATATCTGTTGCACTTTTGTGCTATTCGA,9.49 ± 0.49
14,CATTATGTCGTAAATACACACATACATATACATACA [CACACA_site8383],7.93 ± 0.52
15,AAGGATCACAGACAAACACACATATATATATATATA [CACACA_site4469],9.33 ± 0.42
16,ATTAATTCGTTTTGTACACACATAATGAGTAATTTA [CACACA_site7118],7.82 ± 0.38
17,TAAATTTTTTCCTCCTGTACTTATTATATTTTTTTG [XGTACX_site1572],7.86 ± 0.61
18,TTTTTTTTTTTTTTTTGTACTCATATCTACTATCAT [XGTACX_site274],8.12 ± 0.77
19,ACAAGGTTTACGGGTAGTACAAATTTTTGAACATCT [XGTACX_site4739],7.59 ± 0.54
20,ATAAAAATTGATTATACACACGCGCCCAGACAACAA [CACACA_site5870],8.12 ± 0.49
21,ATATAGATGCATAATACACACATCAGATAATTAACC [CACACA_site6871],8.24 ± 0.45
